These results are taken from PubChem BioAssay (NCI).

The structures appear in SMILES notation.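 Results reflect a 48-hour exposure of cells in 96-well plates to compound at five concentrations. At the GI50, growth is halved. TGI denotes the concentration required for complete inhibition of growth.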 Peptide text beside a SMILES is read from it. * marks the point of attachment. Cbz = O=C(OCc1ccccc1)*; Boc = CC(C)(C)OC(=O)*; tBu = CC(C)(C)* Some results are limits rather than exact numbers.

In this assay the test system is NCI-H322M lung. Nature of the assay: inhibition of tumour cell growth, NCI panel, 48 h.
As for `c1ccc2c(c1)nc1n2CNC1`, the TGI is above 100 µM.

Compound `Cc1nc2ccccc2n1C(=O)c1c(F)c(F)c(F)c(F)c1F` had a TGI above 100 µM.

`Cc1cc(C)n(C2OC(CO)C(O)C(O)C2O)c(=S)c1C#N` (stereo unspecified): the TGI is above 100 µM.

`Cc1ccc(C)c(COCCOCn2ccc(N)nc2=O)c1`: the TGI is above 100 µM.

The compound `COC/C=C\[C@]1(O)CCCC[C@@H]1CC(OC)OC` came in with a TGI above 100 µM.

`Cc1ccccc1N=Nc1ccc(N/N=C2/CCCNC2=O)c(C)c1` registered a TGI above 100 µM.

For the compound `COc1cccc(N2C(=O)[C@H]3CC(C)c4c([nH]c5ccccc45)[C@H]3C2=O)c1` (stereo partly specified), the TGI is above 100 µM.

The compound `N#Cc1c(Cl)c2cc([N+](=O)[O-])ccc2n2c1nc1ccccc12` gave a TGI of 27.6 µM.

On to `O=C(/C=C\n1cnc(-c2cc(C(F)(F)F)cc(C(F)(F)F)c2)n1)NNc1cnccn1`, for which the GI50 was 0.142 µM and the TGI turned out to be 12.5 µM.

Consider `Cc1cc(O)c(C(C)(C)C)cc1Sc1cc(C(C)(C)C)c(O)cc1C`, for which the GI50 was 3.91 µM and the TGI is 15 µM.

On to `N#CCC(=O)NC1C2CC3CC(C2)CC1C3` (stereo unspecified), for which the TGI worked out at 32.5 µM.

`O=C(O)Cc1cc(O)c(CC(=O)O)cc1O` registered a TGI above 100 µM.

In turn, `O=c1[nH]c(Nc2nc3ccccc3[nH]2)nc2c1CCC2` yielded a TGI above 100 µM.

In turn, `CC(=O)N[C@@H](Cc1ccc(O)cn1)C(=O)NCc1cccc(Cl)c1` yielded a TGI above 100 µM.

For `O=C(/C(=C/c1cccc([N+](=O)[O-])c1)c1ccccc1)c1ccccc1`, the GI50 was 3.53 µM and the TGI is 15.9 µM.

With `CS(=O)(=O)c1cc(=O)c2ccccc2s1`, the TGI was found to be 30.7 µM.

Regarding `COc1ccccc1Cn1cc2c(c1-c1ccccc1)CCc1cnoc1-2`, the GI50 is 5.93 µM and the TGI is above 100 µM.

For `COC(=O)c1cc(C)c(C)c2c1NC(=O)CNC2=O`, the TGI is above 100 µM.

`CC1(C)CC(=O)C(/C=N/c2nc(-c3ccccc3)cs2)=C(O)C1` registered a TGI above 100 µM.

As to `O=C(O)[C@@H]1CCCCN1Cc1cc2cc3c(cc2c2cc(OCc4ccccc4)ccc12)OCO3`, the GI50 was 2.86 µM and the TGI is above 100 µM.

The compound `O=C(Cc1ccccc1)N/N=C/c1ccccc1O` yielded a TGI above 100 µM.

For the compound `Cc1ccc(NC(=O)c2sc3nc(C)c(C(O)c4ccccc4)cc3c2N)cc1` (stereo unspecified), the GI50 was 0.509 µM and the TGI was above 79.2 µM.

As to `NCCCCC(N)C(=O)NCCNc1ccc(NCCNC(=O)C(N)CCCCN)c2c1C(=O)c1ccccc1C2=O` (stereo unspecified), the TGI was above 100 µM.

On to `CCCCCN(CCCCC)CC(O)c1ccc(Cl)c2ccccc12` (stereo unspecified), for which the GI50 is 16.5 µM and the TGI was 61.2 µM.

The compound `COc1ccc(/C=C\c2cc(OC)c(OC)c(OC)c2)cc1OC(=O)NCCN(C)C` had a TGI above 100 µM.

As to `COC(=O)C1=C(C(=O)OC)c2cc(OC)ccc2C(C(=S)N(C)C)S1` (stereo unspecified), the TGI is above 100 µM.

For the compound `COc1ccc(OC)c(C(=O)c2oc3ccc(Br)cc3c2N)c1`, the GI50 is 0.867 µM and the TGI is 45 µM.

Regarding `OC/C=C(\I)CCCOCOCc1ccccc1`, the TGI was above 100 µM.

As to `CC(OC(C)(C)C)C(NC(=O)C(CCCCNC(=O)OC(C)(C)C)NC(=O)C(Cc1c[nH]c2ccccc12)NC(=O)C(Cc1ccccc1)NC(=O)OCc1ccccc1)C(=O)NC(Cc1ccccc1)C(=O)O` (stereo unspecified) (Cbz-FWK(Boc)T(tBu)F-OH; configuration not given here), the TGI is above 100 µM.

`O=C1N[C@@H](c2c[nH]c3cc(Br)ccc23)C(=O)N[C@H]1c1c[nH]c2cc(Br)ccc12` showed a TGI above 100 µM.

As for `O=C1CCCC2(c3ccccc3)Nc3ccccc3N12` (stereo unspecified), the TGI is above 100 µM.

In turn, `COc1cc2c(cc1OC)CCc1cc(OC)c(OC)cc1CC2` showed a TGI above 100 µM.

`CN(C)C(c1ccccc1)C(O)c1ccccc1` (stereo unspecified) gave a TGI above 100 µM.

For `CCc1oc2ccccc2c1C(=O)c1cc(I)c(O)c(I)c1`, the GI50 is 6.6 µM and the TGI came to 20.2 µM.

Turning to `COc1cc2c3c(n(CCNCCCNCCn4c5c(c6cc(OC)c(OC)cc6c4=O)C(=O)c4ccccc4-5)c(=O)c2cc1OC)-c1ccccc1C3=O`, the GI50 was 0.0593 µM and the TGI was 2.85 µM.

The compound `CC(=O)N1C/C(=C\c2ccc(N(C)C)cc2)C(=O)/C(=C/c2ccc(N(C)C)cc2)C1` displayed a TGI above 100 µM.

In turn, `COC(=O)C(NC(=O)c1ccccc1)c1ccco1` (stereo unspecified) had a TGI above 100 µM.

For the compound `COc1cc2c(c(OC)c1OC)C(=O)[C@@H]1c3ccc([N+](=O)[O-])cc3C(=O)N(CCCBr)[C@H]21`, the GI50 was 19.8 µM and the TGI came to 94.9 µM.

The compound `C=C1CCC23CC(CC[C@@H]2[C@@]12C[C@@H](c1ccoc1)OC2=O)OC3=O` (stereo partly specified) yielded a TGI above 100 µM.

As for `C=CC1(C)CCC2=C(CCC3C(C)(C(=O)OC)CCCC23C)C1=O` (stereo unspecified), the TGI is 36.5 µM.

In turn, `CNc1nc2n(CCO)c(-c3ccccc3)c(-c3ccccc3)nc-2c(=O)n1` had a TGI above 50 µM.

In turn, `CCCCOC(=O)NC(=O)c1cn(C2CCCCC2)c(=O)[nH]c1=O` showed a TGI of 60.8 µM.

Compound `CN(C)CCCN1c2ccccc2Sc2cnccc21` registered a TGI above 100 µM.

`Fc1ccc(C2SCc3nc4ccccc4n32)cc1Cl` (stereo unspecified) returned a TGI above 100 µM.

`FC(F)(F)c1nc(-c2ccccc2)oc1Sc1nnc(Sc2oc(-c3ccccc3)nc2C(F)(F)F)s1` yielded a TGI above 100 µM.
